GI50 and TGI data for 5 compounds are collected here from PubChem BioAssay (NCI).

Molecules are shown by their SMILES.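 Cultured in 96-well plates, cells were exposed to test compound for 48 hours across five concentrations. GI50 is the concentration that inhibits growth by half. TGI marks complete inhibition of growth.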 A value given as a limit tells only on which side of the number the result lay.

In this experiment the test system is NCI-H322M lung. In words: NCI anticancer screen, dose series, 48 h.
Consider `O=C(N/N=C\c1ccc([N+](=O)[O-])cc1)c1ccc2nc(-c3ccc(Br)cc3)[nH]c2c1`, for which the GI50 was 5.39 µM and the TGI is above 100 µM.

With `CCc1cccc2c3c(sc12)C(c1ccc(OC)cc1)C(C#N)=C(/N=C/c1ccc(Cl)cc1)O3` (stereo not given), the GI50 was 5.03 µM and the TGI was above 100 µM.

`Nc1ncc(-c2ccc3ncnc(N4CCc5cc(F)c(F)cc54)c3c2)cn1`: the GI50 was 2.61 µM and the TGI is above 100 µM.

Turning to `CCCCCCNC(=O)Oc1ccc(/C(=C(/C)c2ccccc2)c2ccc(OCCN3CCCCCC3)cc2)cc1`, the GI50 was 14.9 µM and the TGI stood at 32.6 µM.

Take `CSc1ccc(/C(=N/N=C(N)N)c2ccc(Cl)cc2)cc1`: the GI50 is 0.894 µM and the TGI was determined as 13.2 µM.
